# Measurements taken from publication PMC4336329 (PLoS ONE, 2015).
# Out of some 310,000 compounds screened, about 14,000 (4.5%) showed an effect of 50% or more. The effect is printed as a negative number. The list shows a part of the results.
# Molecular target: human ether-à-go-go-related gene (hERG) potassium channel (human, UniProt Q12809)
# Assay: primary screen, population patch clamp on CHO cells stably expressing hERG
# 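Also: peak tail current of the secondary pulse compared with the same well before compound.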
# Chain of human ether-à-go-go-related gene (hERG) potassium channel (Q12809 whole entry, looked up): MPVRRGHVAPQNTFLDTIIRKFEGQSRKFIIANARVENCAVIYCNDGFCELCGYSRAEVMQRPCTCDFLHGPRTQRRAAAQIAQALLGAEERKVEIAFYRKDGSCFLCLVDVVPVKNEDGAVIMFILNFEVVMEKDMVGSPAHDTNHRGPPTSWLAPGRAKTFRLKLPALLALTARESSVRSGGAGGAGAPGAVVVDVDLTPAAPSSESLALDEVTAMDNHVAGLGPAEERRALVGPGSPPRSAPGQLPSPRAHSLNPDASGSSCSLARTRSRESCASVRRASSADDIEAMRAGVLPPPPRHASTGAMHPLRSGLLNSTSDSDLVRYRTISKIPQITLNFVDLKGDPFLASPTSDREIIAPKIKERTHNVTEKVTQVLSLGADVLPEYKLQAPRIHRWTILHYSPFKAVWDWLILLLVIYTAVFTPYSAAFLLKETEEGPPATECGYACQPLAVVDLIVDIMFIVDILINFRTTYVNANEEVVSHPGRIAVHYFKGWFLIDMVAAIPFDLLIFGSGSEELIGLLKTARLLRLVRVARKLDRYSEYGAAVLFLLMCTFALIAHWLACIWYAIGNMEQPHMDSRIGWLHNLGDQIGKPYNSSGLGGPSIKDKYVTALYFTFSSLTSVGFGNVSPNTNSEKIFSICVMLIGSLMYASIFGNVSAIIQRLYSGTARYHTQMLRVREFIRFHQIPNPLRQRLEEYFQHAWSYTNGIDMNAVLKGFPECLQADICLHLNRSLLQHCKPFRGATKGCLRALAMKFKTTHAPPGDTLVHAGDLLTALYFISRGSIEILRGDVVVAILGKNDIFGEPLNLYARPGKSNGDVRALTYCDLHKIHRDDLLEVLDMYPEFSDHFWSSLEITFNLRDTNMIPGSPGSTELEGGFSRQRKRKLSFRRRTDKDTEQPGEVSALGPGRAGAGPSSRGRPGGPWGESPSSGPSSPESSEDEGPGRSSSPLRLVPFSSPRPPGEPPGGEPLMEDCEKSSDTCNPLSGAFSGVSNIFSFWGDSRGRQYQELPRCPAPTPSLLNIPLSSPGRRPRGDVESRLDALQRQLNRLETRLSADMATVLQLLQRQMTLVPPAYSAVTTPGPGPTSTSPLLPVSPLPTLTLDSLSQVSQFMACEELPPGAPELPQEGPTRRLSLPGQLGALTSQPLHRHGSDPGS
row,SMILES,"hERG current change (%, negative = inhibition) at 10uM"
1,CC(C)Oc1ccc(C(=O)Nc2ccc(Cl)c(S(=O)(=O)Nc3ccc(Cl)cc3)c2)cc1,2.46%
2,COc1ccc(Br)cc1-c1noc(-c2ccccc2F)n1,25.6%
3,CC(C)C[C@H]1CN=C(Nc2ccccc2)N1CC1CCC(C(C)(C)C)CC1 (some centres unmarked),-78.3%
4,C=CCNC(=O)c1onc(CSc2ccccc2)c1C(=O)NCC=C,-19.5%
5,O=C(NCCN1CCN(C(=O)c2cc3ccccc3oc2=O)CC1)c1cc2ccccc2oc1=O,-15.9%
6,CCCS(=O)(=O)N1CCCC(C(=O)NCCc2ccc(OC)c(OC)c2)C1 (centres unmarked),1.22%
7,CCc1[nH]nc2c1C1(CCN(C(=O)c3ccccc3)CC1)C(C#N)=C(N)O2,-30.7%
8,COc1cc(C(CCN2CCCCC2)c2c(OC)cc(OC)c3c(C)cc(=O)oc23)cc(OC)c1OC (centres unmarked),-99.6%
9,CC(=O)Nc1nc(NC(=O)/C=C/c2ccccc2)n(-c2ccccc2)n1,-1.34%
10,COc1cccc(C(=O)NCCSCc2ccccc2Cl)c1,-53.2%
11,COc1ccc(C(=O)Nc2cc(Cl)ccc2-n2cncn2)c(OC)c1OC,-14.4%
12,C[C@H](O)[C@H](O)[C@H]1CNc2nc(N)[nH]c(=O)c2N1.Cl,-3.82%
13,CCOc1ccc(Cc2nnc(N)s2)cc1OCC,-6.21%
14,CCN(CC)c1ccc(/C=N/NC(=O)c2nnn(-c3nonc3N)c2-c2ccc(C)cc2)cc1,7.07%
15,Cc1cc(NC(=O)CSc2nnc3c(C)cc4c(C)ccc(C)c4n23)no1,-5.13%
16,COc1cc(C2NC(=O)NC(c3ccccc3)=C2C(C)=O)ccc1OCC#N (centres unmarked),-8.43%
17,Cc1ccc(CN(Cc2ccco2)C(=S)NCC(=O)O)cc1,9%
18,CCOc1cccc(N2CCN(CCNC(=O)Nc3ccc(C)cc3)CC2)c1C,-57%
19,Cn1c(C(=O)NCCCN2CCN(c3ccccc3F)CC2)cc2c(=O)n(C)c3ccccc3c21,-11.7%
20,CC(C)C(NC(=O)OCc1ccccc1)C(=O)OCC(=O)NC1CC1 (centres unmarked),9.3%
21,CCNC(=O)CN(c1ccccc1)S(=O)(=O)c1ccc(Cl)cc1,2.13%
22,Cc1ccc(Cc2nnc(SCC(=O)Nc3ccccc3)[nH]c2=O)cc1,-23.3%
23,O=C(O)CC1C(=O)NCCN1Cc1ccc(F)c(F)c1 (centres unmarked),29.2%

row,SMILES,"hERG current change (%, negative = inhibition) at 10uM"
1,Cc1cccc(NC(=O)CSc2ncnc3c2oc2ccccc23)c1,1.13%
2,C[n+]1cccc(C(=O)[O-])c1,19.6%
3,Cc1noc(C)c1CSc1nc2ccccc2c(=O)n1-c1ccc(Cl)cc1,1.99%
4,O=C(C1COc2ccccc2O1)N1CCN(c2ccccc2)CC1 (centres unmarked),-16.9%
5,CCOC(=O)c1cnc(COc2ccccc2Cl)[nH]c1=O,16%
6,COc1ccc(N(CC(=O)Nc2cc(C)ccc2C)S(=O)(=O)c2c(C)noc2C)cc1,18.9%
7,Cn1ccnc1SCC(=O)Nc1nc2ccccc2s1,-25.1%
8,Cc1ccc(C(=O)Nc2ccccc2)cc1S(=O)(=O)N1CCN(C)CC1,8.48%
9,CC(=O)NS(=O)(=O)c1ccc(Nc2ccc([N+](=O)[O-])c3nonc23)cc1,18.2%
10,O=c1c2ccccc2c(C=Nc2ccc(S(=O)(=O)Nc3ncccn3)cc2)c(O)n1-c1cccc(Cl)c1,10.7%
11,CC1(C)CC(=O)C=C(NCc2cccnc2)C1,-3.78%
12,COc1cc(CO)ccc1OCc1ccc(Cl)nc1,0.213%
13,C(/C=C/C=C/Nc1ccccc1)=Nc1ccccc1,7.44%
14,CC(=O)c1cc(F)c(N2CCN(C(=O)COc3ccc(F)cc3)CC2)cc1C,-76.3%
15,CCOC(=O)c1ccc(NC(=O)CNC(=O)C23CC4CC(CC(C4)C2)C3)cc1,12.2%
16,CCCCN(C(=O)c1cccc(-n2cnnn2)c1)c1c(N)n(CC(C)C)c(=O)[nH]c1=O,3.88%
17,CCC(C)(C)n1nnnc1C(c1cc(OC)ccc1OC)N1CCN(Cc2ccccc2)CC1 (centres unmarked),-15.5%
18,COc1ccc(CC(=O)NC(C)c2nnc(SCC(=O)Nc3cc(C)ccc3OC)n2C)cc1 (centres unmarked),-9.28%
19,CC12C(=O)N(NC(=O)c3ccncc3)C(=O)C1C1C=CC2C1 (centres unmarked),10.1%
20,CCOc1ccc(/C=N/Nc2ccccn2)cc1OC,-11.9%
21,O=C(NCc1ccccc1)C(=O)NCC1OCCCN1S(=O)(=O)c1cccs1 (centres unmarked),-6.21%
22,CCOC(=O)c1ccc(NC(=O)Nc2ccc(F)cc2)cc1,11.9%
23,CC(=O)NCCNc1nc2c(-c3cccc(C(F)(F)F)c3)nnn2c2ccccc12,29.9%

row,SMILES,"hERG current change (%, negative = inhibition) at 10uM"
1,CC1(C)CC(=O)C(N=Nc2ccc(S(=O)(=O)N3CCCCCC3)cc2)=C(O)C1,7.18%
2,O=C(COc1ccccc1[N+](=O)[O-])N/N=C/c1ccc(O)cc1,-2.04%
3,CCN(CC)CCNC(=O)/C(=N\O)c1ccccn1,17.1%
4,CN(C)/C=C/C(=O)c1ccc(F)cc1,-0.195%
5,CCc1ccc(C2C(C#N)=C(N)N(N(C)C)C3=C2C(=O)CCC3)s1 (centres unmarked),-21.7%
6,O=C(Nc1nccs1)c1ccc(N2C(=O)C3CCCCC3C2=O)cc1 (centres unmarked),16.7%
7,CC[N+]1(C)[C@@H]2CC[C@H]1CC(OC(=O)[C@H]1CCC(C(=O)OC3C[C@H]4CC[C@@H](C3)[N+]4(C)CC)(c3ccccc3)c3ccccc31)C2.[Cl-] (some centres unmarked),9.41%
8,O=C(NCCc1ccccc1)c1ccc([N+](=O)[O-])cc1,-17.4%
9,COC(=O)c1sccc1NC(=O)c1ccnn1C,16.9%
10,Cc1cc(-n2cnnn2)cc(C)c1S(=O)(=O)NCCOc1ccccc1,-38.5%
11,O=C(NCCc1ccc(Cl)cc1)c1ccc2nc[nH]c2c1,-1.98%
12,O=S1(=O)CC(O)C(Nc2ccccc2)C1 (centres unmarked),-0.706%
13,COc1ccc2[nH]c(=O)cc(C(=O)O)c2c1,0.994%
14,CN(C)c1nn(C(=O)Nc2cccc(C(F)(F)F)c2)cc1-c1ccccc1,5.64%
15,O=C(CCCn1cc([N+](=O)[O-])cn1)N1CCCCC1,11.2%
16,CCn1c(SCC(=O)N2CCN(c3ccc(F)cc3)CC2)nc2ccccc2c1=O,-45.2%
17,CCN(CC)CCOC(=O)c1ccc2c(c1)OCCO2.Cl,-11.4%
18,C(=Nc1ccc(N2CCOCC2)cc1)c1c[nH]c2ccccc12,14%
19,Cc1ccc(S(=O)(=O)N(C)c2ccc(OC(=O)c3ccc(=O)[nH]c3)cc2)cc1,-28.7%
20,O=C1/C(=C/c2cccs2)Sc2ccccc21,8.58%
21,CC1CCCCC1NC(=O)c1cncc(Br)c1 (centres unmarked),11.4%
22,CC(=O)Cn1ncc(N2CCCCC2)c(Cl)c1=O,17.8%
23,O=C(Nc1nnc(S(=O)(=O)N2CCCC2)s1)c1ccccc1F,14.7%

row,SMILES,"hERG current change (%, negative = inhibition) at 10uM"
1,CC1CCCN(C(=O)c2cccc(S(=O)(=O)Nc3cc(C(F)(F)F)ccc3Cl)c2)C1 (centres unmarked),13.4%
2,CC(C)CNC1=CC(=O)CC(c2ccco2)C1 (centres unmarked),6.11%
3,CC1=NN(c2ccccc2)C(=O)C1(C)C,19.5%
4,COc1ccc(N2C(=O)CSC2c2cccc(F)c2)c(OC)c1 (centres unmarked),12.1%
5,Nc1nonc1-n1nnc(C(=O)N/N=C/c2cccc(Cl)c2)c1-c1ccc2c(c1)OCO2,13.4%
6,Cc1c(C(=O)N2CCC3(CC2)OCCO3)oc2ccccc12,-8.31%
7,CCOC(=O)N1CCN(C(=O)C(C)n2nc(C)n3c(cc4sccc43)c2=O)CC1 (centres unmarked),-4.51%
8,Cc1ccc(S(=O)(=O)CCC(=O)OCC(=O)N2CCN(S(=O)(=O)c3ccccc3)CC2)cc1,22.6%
9,CCOC(=O)c1c(CN2CCN(c3ccccc3)CC2)oc2ccc(O)cc12,-4.3%
10,O=C(N/N=C/c1cccc(O)c1)c1ccc(COc2cccc3cccnc23)cc1,22.8%
11,COc1ccccc1CC(=O)NN1C(=O)c2ccccc2C1=O,9.7%
12,Cc1noc2ncnc(Sc3ccc(Cl)cc3)c12,16.3%
13,O=C(COc1ccc(Cl)cc1)NNC(=O)CSc1nncs1,8.43%
14,COc1cccc(CN2CCN(S(=O)(=O)c3ccccc3)CC2)c1OC,-4.11%
15,CCOc1ccc2[nH]c(C(=O)N/N=C/c3cc(OC)c(OC)c(OC)c3)cc2c1,18.3%
16,Cc1cc(Cl)ccc1OCCCC(=O)NCc1cccs1,-5.7%
17,O=S(=O)(NC(=NCc1ccccc1)c1ccccc1)c1ccccc1,12.6%
18,O=C(CCl)Nc1cccc(Oc2cnccn2)c1,7.22%
19,COC(=O)c1cnn2c1C(=O)N(Cc1cccs1)CC2,24.3%
20,CNC(C(=O)c1ccccc1)C(OC)c1ccccc1.[O-][Cl+3]([O-])([O-])O (centres unmarked),6.4%
